Some of the results follow. At the low end of the ranking, values are background and their order means little.

In this assay the target is SIX1-Q177R homeodomain (UniProt Q15475). The assay can be described thus: universal protein binding microarray. Particulars: Universal all-10-mer PBM (8x60K, AMADID 030236), 300 nM GST-tagged protein, Alexa Fluor 488 anti-GST; buffer, salt, pH and temperature not stated; high values mean tight binding; most listed sequences are background and not binding sites; double strand, one strand shown.
With AGCCACAC, the binding signal stood at 0.208 E-score. The figure for AGTGCGCC is -0.0576 E-score; for ACGACAAT it is -0.00954 E-score. The figure for GATAGAGC is -0.285 E-score. The figure for AGGCCTCA is -0.188 E-score; for ACAACTCA it is 0.0668 E-score. Regarding AGTCCTCC, the binding signal is -0.0984 E-score. The figure for TAACCACA is -0.0187 E-score.

As for GAATTCGA, the binding signal was -0.137 E-score. CTGAGCAG: the binding signal was -0.207 E-score.

For the sequence TAACTCCA, the binding signal was 0.138 E-score.

Consider ATAACACG, for which the binding signal turned out to be 0.402 E-score. The figure for AGGTGTTG is 0.448 E-score; for CACGTTTA it is 0.0395 E-score; for ATCGGTTA it is 0.0118 E-score.

Regarding ACCTATCT, the binding signal was -0.029 E-score. Next, CAGCCAGA: -0.217 E-score. The figure for AGTACACC is 0.481 E-score; for CCTTGGAG it is 0.0221 E-score; for CCAAATTA it is -0.176 E-score. The figure for ATAGACCC is 0.0353 E-score. ATATTGAG: the binding signal is -0.145 E-score. The figure for GCTTCCTA is -0.15 E-score; for CCTACTGC it is -0.133 E-score; for CAAACTAA it is -0.0502 E-score. For ACAGGCAC, the binding signal is -0.0324 E-score. The figure for ACTCGAGC is 0.0645 E-score; for ATGAGCCA it is -0.122 E-score. On to ACATGCCA, for which the binding signal is -0.15 E-score.

On to ACTGGTGA, for which the binding signal was -0.0176 E-score.

For the sequence CGATTAAA, the binding signal was 0.0247 E-score.

For CTTCCATA, the binding signal is -0.25 E-score. The figure for AAACTCTG is -0.198 E-score; for GCACTCCC it is 0.127 E-score. The figure for CCTCCTAA is 0.197 E-score; for GGCTACCA it is 0.0305 E-score; for ATTCGTCC it is -0.088 E-score. In the case of CATTCGGA, the binding signal was -0.0373 E-score. The figure for TTGAGCAA is -0.2 E-score; for ATTCGCAG it is -0.196 E-score; for CTTCGAAA it is 0.0326 E-score.

Take GGGCATAA: the binding signal was -0.0847 E-score. Consider AGGGACCG, for which the binding signal is -0.238 E-score. ATTAATGC: the binding signal was -0.0151 E-score. Next, CACTACCC: 0.274 E-score. Next, ACTGTCCG: -0.0475 E-score. The figure for GTATCCCA is 0.252 E-score; for CAATCACC it is -0.023 E-score. Take GGAGTCCC: the binding signal stood at 0.171 E-score. The figure for ACAGTGAG is -0.132 E-score; for CGAATGCG it is -0.0892 E-score; for CTAAGTAC it is -0.033 E-score.

For AGGCAATG, the binding signal was -0.193 E-score. The figure for GCTACCAC is 0.181 E-score; for CACCCAGC it is 0.127 E-score.

Take CCCTATCC: the binding signal was 0.0276 E-score.

As for ACGCCTTG, the binding signal was determined as 0.047 E-score. The figure for TCTTAAGA is -0.285 E-score; for CCGGAGAG it is 0.00094 E-score; for AAGACATC it is -0.256 E-score. The figure for AGGCCCAG is -0.148 E-score; for TGAACAAA it is -0.163 E-score. The figure for CCTCCTCG is 0.0483 E-score. Turning to ACATTGGC, the binding signal is -0.046 E-score. The figure for CCGAAGAC is 0.0154 E-score; for CAGGGATA it is 0.0508 E-score.

Consider CGTGTGGC, for which the binding signal turned out to be 0.181 E-score. The figure for CTGTGAAA is -0.0901 E-score. As to GAGTAGAC, the binding signal is -0.00771 E-score. The figure for AAGCACGC is -0.0661 E-score.

As for AGGGGGCA, the binding signal was -0.0454 E-score.

With CGGATTAA, the binding signal was -0.022 E-score.

Take CGGGCCAA: the binding signal is -0.15 E-score. The figure for CTGTATAC is 0.122 E-score; for CCTCCCGA it is -0.0757 E-score. Next, ATCCTCTA: 0.0468 E-score; AACATTCG: -0.169 E-score. The figure for TAATATCA is -0.0163 E-score. Turning to ACAAGGGC, the binding signal is 0.00401 E-score. For CATACTCA, the binding signal amounted to 0.0458 E-score.

Turning to GTCCCGAA, the binding signal was -0.165 E-score. The figure for CAGAAGCC is -0.161 E-score; for CTTTCCCA it is -0.0356 E-score. Next, CTTATTTC: -0.193 E-score; CTGACCGC: -0.221 E-score; ACCGCCTG: 0.146 E-score. The figure for AAGAGCCG is -0.148 E-score; for CCAGCCTA it is -0.0268 E-score; for ACACCGCA it is 0.48 E-score.

For AAGCGACG, the binding signal was 0.00388 E-score. Next, CTATTTGA: -0.186 E-score; CTCCGTTA: 0.011 E-score; ATTCGGTG: 0.325 E-score. Next, GCGCAGGA: -0.0255 E-score.

For the origin of these results see PMC10668032.
